Results taken from the supplement of paper PMC11417369.
± gives the standard deviation of the averaged measurements. This is one part of the list.

System: PfAP2-I AP2 domain 3 (GST-tagged)
Assay: gcPBM binding intensity (ln(normalized median fluorescence intensity)); higher = stronger DNA binding
Outline: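 The highest Masliner-normalised natural-log median intensity across replicate spots of either probe orientation is reported as binding intensity. GST-tagged P. falciparum DNA-binding domains expressed in E. coli were applied for 1 h to an Agilent 4 × 180k array of primer-extended double-stranded 36-bp intergenic genomic probes plus negative controls, and bound protein was detected with Alexa488 anti-GST antibody and scanned at 488 nm.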

| Sequence | gcPBM binding intensity (ln) |
| --- | --- |
| CATATATAAATCATGTGTACGTATTGAGTATCTACT [XGTACX_site6278] | 7.88 ± 0.26 |
| ATAAGATATGTATATACACACATTTATTTACCTATA [CACACA_site7521] | 7.98 ± 0.45 |
| TTATTATTTTATAACACACACATATATATTATATCT [CACACA_site1434] | 8 ± 0.47 |
| ATATGACTTAAATATGTGCGCATTTTTTTTTTTTTT | 8.58 ± 0.4 |
| TACACAAGAAAATTCACACACACACGGATATTTATA [CACACA_site7765] | 7.7 ± 0.44 |
| GTATCGAAGTAAATACGTACTTAAATATGTTTAAAA [XGTACX_site1353] | 7.48 ± 0.37 |
| ACGTACTGCCCTAAAGTGCATATATAATATAAACGA [GTGCAC_site9911] | 10.1 ± 0.34 |
| CTTTAAACCCTGAACACACACAAATACAGACAAAAA [CACACA_site247] | 8.05 ± 0.61 |
| GTATTTTAATATAAATGTACATAAATGTTATATATA [XGTACX_site3475] | 7.69 ± 0.27 |
| AATATTGTATATAATAAACACACAATATTAAAAATA [CACACA_site8262] | 7.57 ± 0.39 |
| CATTAATAACAAAGTTGTACAAGATAATATTATATG [XGTACX_site6832] | 8.06 ± 0.56 |
| ATCTAGCCATTTTTTAGTACACATAAATAAAAAAAA [XGTACX_site1257] | 8.37 ± 0.014 |
| TTTTATTTGACAAGCACACACTTAAATATATTTATA [CACACA_site7557] | 8.09 ± 0.61 |
| ACATAAGAAGTTATATGTACATATATTTTTTAAATT [XGTACX_site8078] | 7.68 ± 0.41 |
| AAAACATTTTCAAACTGTACACATAGAACTATGCAT [XGTACX_site4087] | 7.78 ± 0.61 |
| TAAACAAAATATATATGTACATATATATATATATAT [XGTACX_site6502] | 9.51 ± 0.59 |
| TCATAAAATATGTTTTGTACATAAAATTAAACAAGT [XGTACX_site1763] | 7.74 ± 0.47 |
| AAATAAGAGAAAATATGTACATACATATATTTATAT [XGTACX_site6210] | 7.72 ± 0.57 |
| AATACGTTTATATATTGTACGTTATATATATATATA [XGTACX_site7452] | 9.21 ± 0.59 |
| AAATATAAATAAAGATGTACATTATCTATATGTGAT [XGTACX_site4863] | 7.67 ± 0.45 |
| ATATAATTTGTTATACTAACTTTTTAATTATTGATA [GTGCAC_negctrl_site443] | 7.4 ± 0.54 |
| AAGAAAAGCAAACAAGTGCATAATAACAAAAAAAAT [GTGCAC_site9725] | 10.7 ± 0.38 |
| TATTTATTTATAAACACACAAATATTTTTATTTATA [CACACA_site6889] | 7.53 ± 0.47 |

| Sequence | gcPBM binding intensity (ln) |
| --- | --- |
| TAAGTTCGAATTACTTAAATATTGATTTTTTTAAAA [TGCATGCA_negctrl_site114] | 7.17 ± 0.38 |
| AATTTTCTACAAATGTGTACTAAATAAAATATTACT [XGTACX_site7175] | 7.81 ± 0.44 |
| AAAAAAGAAAAAAGGACACACATAAATATACACCCG [CACACA_site5590] | 8.06 ± 0.53 |
| ACAATGAGGATATATACACACATACATTAAAAAAAT [CACACA_site6955] | 7.79 ± 0.6 |
| TTTTTCTGTTCTTTTTGTACTTAAATATATTTATTT [XGTACX_site5658] | 7.91 ± 0.85 |
| ATGTGTGTATTTTATAGTACAGTTACAAGCATTTTT [XGTACX_site6351] | 7.84 ± 0.49 |
| AGAATATAATTTTTATGTACATATATTAAATATATT [XGTACX_site8521] | 7.6 ± 0.37 |
| CACAAAAATAAACACACACACATATATATATATATA [CACACA_site4704] | 9.39 ± 0.42 |
| TTCTTTTTGAAATATTAACACACATTTTGTTAATTA [CACACA_site9337] | 7.71 ± 0.56 |
| CAAACATTTTAATGTACACACACCCACAGACAAACA [CACACA_site5522] | 8.44 ± 0.099 |
| AGGAATTTATAAAATTGTACTTTTAATTACCTACAG [XGTACX_site3153] | 7.75 ± 0.29 |
| ACCATGATAAATGTATTAAATGTATCATAACCTATG [CACACA_negctrl_site513] | 7.38 ± 0.56 |
| AACGAAAGAAAAAAAGCACACACAGTTTTGAGCAAT [CACACA_site8658] | 7.98 ± 0.78 |
| ATCCGTGTCTGAAATACACACATGATAATGTGAATG [CACACA_site8210] | 7.7 ± 0.58 |
| ATGGAAACAAGCATCACACATATAAATATATATATA [CACACA_site4979] | 9.075 ± 0.035 |
| TAAGATGATATAGACTGTACATATTGAACTTACAAG [XGTACX_site4290] | 7.47 ± 0.58 |
| GTTTTTAAATATGCCATACACACTACTATATAATAA [CACACA_site1927] | 8.17 ± 0.45 |
| TAATATATTAATTTTTGTACTTAATTATATGTTTTT [XGTACX_site5654] | 7.33 ± 0.4 |
| GAAGAAAAAGAAAAAAGTACATATATTATATTATAA [XGTACX_site7870] | 7.73 ± 0.42 |
| ATTCATATTAAATATATATATATATATATATATATA [CACACA_negctrl_site484] | 9.28 ± 0.64 |
| ATATTTATATTTATGTGTACATATGAAATAATTATT [XGTACX_site7765] | 7.82 ± 0.41 |
| TAATATATTATGAGGGGTACATAATATGGTTTATTG [XGTACX_site8301] | 7.84 ± 0.49 |
